Laboratory results as given in PubChem BioAssay AID1508623 (National Center for Advancing Translational Sciences (NCATS), 2021).
Among all 48,000 compounds or so, about 450 (0.94%) were called active. The shares of active, inactive and inconclusive entries below differ from those in the screen. Calls come from the whole dose curve; as a rule, active = well fitted inhibition curve with a large enough effect; inconclusive = small, poorly fitted or top-dose-only effect; inactive = no such curve, though single readings can be large or run the other way. Potencies beside an inconclusive call are fits to weak or partial responses and may not hold up.

assay: Primary qHTS for Identification of Small Molecule Inhibitors of Huntingtin Promoter Activity; conditions: HEK293 HTT promoter firefly luciferase reporter (activity 0% = vehicle and -100% = no light), 24 h; series mostly up to 57.5 µM; note: nearly all actives have a fitted effect of over 50% in size
In short: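 Firefly luciferase readout (Dual-Glo, 10 min RT) after 24 h, 37 °C compound exposure (final up to 57.5 uM) of HEK293 reporter cells cultured 24 h beforehand; PTC124 at 50 uM final as control inhibitor; activity scaled vehicle 0%, zero RLU -100%.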
Potency is the fitted concentration of half-maximal effect; tags give direction and shape of the fitted curve.

Row | Structure (SMILES) | Potency
1 | Cc1ccc(CNC(=O)c2nc(S(=O)(=O)Cc3ccc(C)cc3)ncc2Cl)cc1 | inconclusive: 39.8 µM [inhibitor, single point]
2 | CCOC(=O)C1(C)C=C(Nc2cccc(C)c2)C(=O)N1c1ccccc1 (configuration not stated) | inconclusive: 35.5 µM [inhibitor, single point]
3 | O=C1c2[nH]nc(-c3ccccc3O)c2C(c2ccc(Cl)cc2)N1CCc1ccccc1 (configuration not stated) | inconclusive: 22.4 µM [inhibitor, partial curve, poor fit]
4 | COc1cc(OC)cc(-c2cc3nc(C)c(CCC(=O)Nc4ccc(F)c(Cl)c4)c(C)n3n2)c1 | active: 1.58 µM
5 | COc1ccc(Cc2nc3ccc(C(=O)NCCc4ccccc4)cc3o2)cc1 | inconclusive: 39.8 µM [inhibitor, single point]
6 | CCOC(=O)c1c(C)[nH]c(C)c1S(=O)(=O)N1CCN(c2ccc(Cl)cc2)CC1 | inconclusive: 20 µM [inhibitor, partial curve]
7 | CC(=O)N1c2ccc(S(=O)(=O)NCC3CCC(C(=O)Nc4ccc(F)cc4)CC3)cc2CC1C (configuration not stated) | inconclusive: 15.8 µM [inhibitor, partial curve, poor fit]
8 | COc1ccc(CNC(=O)c2ccc3c(c2)CCN3S(=O)(=O)c2ccc(Cl)cc2)cc1 | inconclusive: 12.6 µM [inhibitor, partial curve, poor fit]
9 | COC[C@@H](c1ccc(C(F)(F)F)cc1)N1CCN(C2(C)CCN(C(=O)c3c(C)ncnc3C)CC2)C[C@H]1C | inconclusive: 15.3 µM [inhibitor, partial curve, poor fit]
10 | COc1cc2nc(SCC(=O)Nc3cccc(C)c3)n3nc(CCn4c(C)nc5ccccc54)nc3c2cc1OC | inconclusive: 1 µM [inhibitor, partial curve, poor fit]
11 | CCOc1ccc(NC(=O)CN(C)S(=O)(=O)c2ccc3[nH]c4c(c3c2)CCCC4)cc1 | inconclusive: 39.8 µM [inhibitor, single point]
12 | Cc1ccc(Cl)cc1N1CCN(C(=O)C2CCCN(Cc3nc(-c4cccc(Cl)c4)oc3C)C2)CC1 (configuration not stated) | active: 35.5 µM
13 | Cc1ccc(NC(=O)C2CCCN(S(=O)(=O)c3ccc4c(c3)CCCC(=O)N4)C2)cc1Cl (configuration not stated) | inconclusive: 35.5 µM [inhibitor, partial curve, poor fit]
14 | O=C(c1ccc(Cl)cc1)c1cn(Cc2ccccc2)c2cc3c(cc2c1=O)OCCO3 | inconclusive: 28.2 µM [inhibitor, single point]
15 | Cc1ccc(NC(=O)Cn2c(=O)ccc3cc(S(=O)(=O)N4CCCC4)ccc32)cc1N(C)C | inconclusive: 22.4 µM [inhibitor, single point]
16 | COc1cc(OC)c(OC)cc1/C=C/c1nc2ccccc2c(=O)n1-c1ccc(Br)c(C)c1 | inconclusive: 39.8 µM [inhibitor, single point]
17 | CCc1ccc(CNC(=O)c2ccc(CS(=O)(=O)Cc3cccc(C)c3)o2)cc1 | inconclusive: 25.1 µM [inhibitor, single point]
18 | COc1ccc(CCNC(=O)C(=O)NCC(c2cccnc2)N2CCN(c3ccccc3)CC2)cc1 (configuration not stated) | active: 12.6 µM
19 | CCC(C(=O)NCCc1ccc(Cl)cc1)n1ccc2cc(S(=O)(=O)N3CCCCC3)ccc21 (configuration not stated) | inconclusive: 25.1 µM [inhibitor, partial curve, poor fit]

Row | Structure (SMILES) | Potency
20 | O=C(NCc1ccco1)c1ccc2c(c1)N(Cc1ccccc1F)C(=O)c1ccccc1S2(=O)=O | inactive
21 | Cc1cccc(-n2cnc3cc(C(=O)NC4CCCCCC4)ccc32)c1 | inconclusive: 35.5 µM [inhibitor, single point]
22 | CCc1cnc2c(c1SCCC(C)C)c(=O)n(C)c(=O)n2C | inconclusive: 20 µM [inhibitor, partial curve, poor fit]
23 | Cc1cccc(C)c1NC(=O)CN1C(=O)c2ccccc2Sc2ncccc21 | inactive
24 | COC(=O)c1cc2sc(C)cc2n1CC(=O)Nc1ccc(C)cc1Cl | inconclusive: 39.8 µM [inhibitor, single point]
25 | CC(=O)N1CCN(c2ccc(OC[C@H]3CO[C@](Cn4ccnc4)(c4ccc(Cl)cc4Cl)O3)cc2)CC1 | inactive
26 | FC(F)(F)c1ccc(C=Cc2nc(COc3ccc(CCCCn4ccnn4)cc3)co2)cc1 | inconclusive: 0.0012 µM [inhibitor, full curve]
27 | Cc1ccccc1CSCCNC(=O)CN(c1ccccc1)S(=O)(=O)N(C)C | inconclusive: 39.8 µM [inhibitor, single point]
28 | Cc1ccc(C)c(N2CCN(S(=O)(=O)c3csc(C(N)=O)c3)CC2)c1 | inconclusive: 28.2 µM [inhibitor, single point]
29 | CCn1nnc2cc(C(=O)Nc3cccc(C)c3C)ccc21 | inactive
30 | Cc1ccc(C)c(CSc2cn(CCNC(=O)c3ccccc3F)c3ccccc23)c1 | inconclusive: 31.6 µM [inhibitor, single point]
31 | COc1ccc(NC(=O)c2oc3ccc(S(=O)(=O)N4CCC5(CC4)OCCO5)cc3c2C)cc1Cl | inconclusive: 25.1 µM [inhibitor, partial curve]
32 | O=C(/C=C/c1ccc(Cl)cc1)Nc1nc(-c2cccs2)ns1 | inconclusive: 20 µM [inhibitor, partial curve, poor fit]
33 | CC(=O)N1CCCc2cc(S(=O)(=O)N(Cc3ccccc3)C(C)C)ccc21 | inconclusive: 14.1 µM [inhibitor, partial curve, poor fit]
34 | CCCN1CCN(CCCNC(=O)Cn2c(-c3cccs3)cc3cc(Cl)ccc32)CC1 | inconclusive: 31.6 µM [inhibitor, single point]
35 | Cc1ccc2occ(CC(=O)N3CCN(c4cccc(Cl)c4)CC3)c2c1 | inconclusive: 31.6 µM [inhibitor, single point]
36 | O=C(Nc1nc2n(n1)C(c1ccc(F)cc1)C=C(c1ccccc1)N2)c1cccc([N+](=O)[O-])c1 (configuration not stated) | inconclusive: 35.5 µM [inhibitor, single point]
37 | Cc1cccc(NC(=O)c2ccc(F)c(S(=O)(=O)N(C)C3CCCCC3)c2)c1 | inconclusive: 31.6 µM [inhibitor, partial curve, poor fit]
38 | COc1ccc(NC(=O)C(C)n2nc(C)c3c(C)n(-c4ccccc4)nc3c2=O)cc1Cl (configuration not stated) | inconclusive: 20 µM [inhibitor, partial curve, poor fit]

Row | Structure (SMILES) | Potency
39 | CCN1C(=O)c2ccccc2Sc2ccc(NC(=O)Nc3ccc(C(C)=O)cc3)cc21 | inconclusive: 31.6 µM [inhibitor, partial curve]
40 | CCc1cccc(C)c1NC(=O)COCc1cc(-c2ccc3c(c2)OCO3)on1 | inconclusive: 39.8 µM [inhibitor, partial curve, poor fit]
41 | Cc1cc(C)c(Cn2c(C)c(CNCc3ccccc3C)c(C(=O)O)c2C)c(C)c1 | inconclusive: 11.2 µM [inhibitor, partial curve, poor fit]
42 | CC1CCCCN1C(=O)CSc1nc2ccccc2nc1Cc1ccc(Cl)cc1 (configuration not stated) | inconclusive: 31.6 µM [inhibitor, single point]
43 | Nc1c(C(=O)Nc2ccccc2Cl)nnn1Cc1cccc(Cl)c1 | inconclusive: 11.2 µM [inhibitor, partial curve, poor fit]
44 | Cc1c(CCNS(=O)(=O)c2ccccc2)sc2nc(-c3ccc(Cl)cc3)nn12 | inconclusive: 28.2 µM [inhibitor, partial curve, poor fit]
45 | Cc1ccc(-n2ncc3c(N4CCC(C)CC4)ncnc32)cc1C | inconclusive: 20 µM [inhibitor, partial curve, poor fit]
46 | COc1ccc(C(C(=O)NCc2ccccc2)N(C(=O)Cn2nnc3ccccc32)c2ccc(F)cc2)cc1 (configuration not stated) | inactive
47 | Cc1cccc(-c2noc(CNC(=O)c3ccc(C)cc3C)n2)c1 | inconclusive: 28.2 µM [inhibitor, partial curve, poor fit]
48 | COc1ccc(NCc2nc3ccccc3n2CCOc2ccc(C)cc2)cc1 | inconclusive: 31.6 µM [inhibitor, single point]
49 | Cc1cccc(NC(=O)C2CCCN(c3nnc(-n4c(C)ccc4C)s3)C2)c1C (configuration not stated) | inactive
50 | CCN(CC)c1ccc(C(=O)N2CCC(c3ccncc3)CC2)cc1 | inconclusive: 44.7 µM [inhibitor, partial curve, poor fit]
51 | CCOC(=O)C1CCCN(C(=O)c2ccc3c(c2)N(Cc2cccc(Cl)c2)C(=O)c2ccccc2S3(=O)=O)C1 (configuration not stated) | inconclusive: 39.8 µM [inhibitor, single point]
52 | CCCN(C(=O)Cn1c(=O)oc2cc(Cl)ccc21)c1ccc(C(C)C)cc1 | inconclusive: 28.2 µM [inhibitor, single point]
53 | Cc1cc(C)c(S(=O)(=O)NCC(c2ccc(N(C)C)cc2)N2CCc3ccccc32)c(C)c1 (configuration not stated) | inconclusive: 35.5 µM [inhibitor, partial curve, poor fit]
54 | CCOC(=O)c1ccc(Nc2nc(C(=O)OCC)nc3ccccc23)cc1 | inconclusive: 39.8 µM [inhibitor, single point]
55 | COc1ccccc1NC(=O)CSc1oc(-c2ccco2)nc1S(=O)(=O)c1ccc(Br)cc1 | inconclusive: 39.8 µM [inhibitor, single point]
56 | COc1ccc(-c2nnc(SCC(=O)Oc3cccc(C)c3C)o2)cc1 | inconclusive: 28.2 µM [inhibitor, single point]
57 | COc1ccc(N(C(=O)c2ccccc2C)S(=O)(=O)c2ccc(C)cc2)cc1 | inconclusive: 28.2 µM [inhibitor, single point]
